Source: patent US20240309052A1 (SUNNYBROOK RESEARCH INSTITUTE, published 2024)

T1: recombinant mouse CD226-his (50232-M08H; SinoBiological) (mouse, UniProt Q8K4F0 19-254)
T1 construct: Bought protein, captured on an anti-histidine chip for SPR; also called mCD226-his; mCD226; not shown: His tag
T1 sequence (looked up): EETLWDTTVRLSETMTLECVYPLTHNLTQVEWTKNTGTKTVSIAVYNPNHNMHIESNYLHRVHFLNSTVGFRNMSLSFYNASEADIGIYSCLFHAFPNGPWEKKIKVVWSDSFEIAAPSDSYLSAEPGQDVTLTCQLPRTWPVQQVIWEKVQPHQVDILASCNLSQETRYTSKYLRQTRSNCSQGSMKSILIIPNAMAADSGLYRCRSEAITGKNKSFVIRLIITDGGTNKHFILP

T2: recombinant mouse CD96-his (788806; Biolegend) (mouse, UniProt Q3U0X8 22-536, limits assumed)
T2 construct: Bought protein, captured on an anti-histidine chip for SPR; also called mCD96-his; mCD96; not shown: His tag
T2 sequence (looked up): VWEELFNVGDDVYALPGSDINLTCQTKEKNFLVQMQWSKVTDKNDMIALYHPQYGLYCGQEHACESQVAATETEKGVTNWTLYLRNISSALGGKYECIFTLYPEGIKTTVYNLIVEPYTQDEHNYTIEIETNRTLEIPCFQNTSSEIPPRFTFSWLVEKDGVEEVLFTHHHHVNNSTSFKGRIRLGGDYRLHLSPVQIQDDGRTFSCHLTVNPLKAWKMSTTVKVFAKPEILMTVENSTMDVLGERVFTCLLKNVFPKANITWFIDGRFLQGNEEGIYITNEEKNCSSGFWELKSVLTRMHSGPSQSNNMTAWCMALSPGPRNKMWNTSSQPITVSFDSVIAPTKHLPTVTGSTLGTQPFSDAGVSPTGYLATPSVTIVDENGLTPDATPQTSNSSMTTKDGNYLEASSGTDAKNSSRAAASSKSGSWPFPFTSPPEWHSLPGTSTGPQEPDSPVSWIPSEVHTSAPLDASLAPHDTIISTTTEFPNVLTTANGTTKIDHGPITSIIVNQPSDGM

T3: recombinant mouse TIGIT-Fc-his (771808; Biolegend) (mouse, UniProt P86176 29-148, limits assumed)
T3 construct: Bought protein, captured on an anti-histidine chip for SPR; also called mTIGIT-Fc-his; mTIGIT; not shown: Fc part; His tag
T3 sequence (looked up): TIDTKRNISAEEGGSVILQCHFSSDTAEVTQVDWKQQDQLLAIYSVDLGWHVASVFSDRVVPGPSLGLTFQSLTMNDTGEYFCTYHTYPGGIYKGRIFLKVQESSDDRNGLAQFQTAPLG

T4: mouse TIGIT on stimulated primary murine CD4+ and CD8+ T-cells (mouse, UniProt P86176 29-249)
T4 construct: whole, on cells; The cells are primary T-cells that also carry CD226; also called TIGIT on murine T cells
T4 sequence (looked up): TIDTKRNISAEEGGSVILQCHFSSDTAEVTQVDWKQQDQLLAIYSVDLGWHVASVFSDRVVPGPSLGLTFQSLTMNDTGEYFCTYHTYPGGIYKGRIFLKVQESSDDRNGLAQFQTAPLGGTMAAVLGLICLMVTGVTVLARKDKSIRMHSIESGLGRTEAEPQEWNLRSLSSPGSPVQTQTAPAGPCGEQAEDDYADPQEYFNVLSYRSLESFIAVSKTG


Tests used:
[1] = target: T1, recombinant mouse CD226-his …; test: SPR (Biacore T200), single-cycle kinetics, mCD226-his captured by anti-His, 1:1 Langmuir fit
From the text: (§1) Surface Plasmon Resonance: Binding kinetics of vdPVR-Fc, mutant vdPVR-Fc and PVR-Fc (786608; Biolegend) proteins to mTIGIT-Fc-his (771808; Biolegend), mCD226-his (50232-M08H; SinoBiological) and mCD96-his (788806; Biolegend) were derived from single cycle kinetic analyses by surface plasmon resonance (SPR) using a Biacore T200 (Cytiva). Briefly, anti-histidine antibodies were immobilized on a CM5 chip (29149604; Cytiva) using the His capture kit (28995056; Cytiva) following manufacturer's protocol.

[2] = target: T2, recombinant mouse CD96-his (788806; …); test: SPR (Biacore T200), single-cycle kinetics, mCD96-his captured by anti-His, 1:1 Langmuir fit
From the text: as §1

[3] = target: T3, recombinant mouse TIGIT-Fc-his (771808; …); test: SPR (Biacore T200), single-cycle kinetics, mTIGIT-Fc-his captured by anti-His, 1:1 Langmuir fit
From the text: as §1

[4] = target: T4, mouse TIGIT on stimulated primary …; test: flow cytometry on ConA-stimulated mouse splenocytes gated on CD4+ and CD8+ T-cells, detected with PE anti-human IgG Fc [bottom panels]
Description: Cell binding to mouse T cells: Binding of vdPVR-Fc and mutant vdPVR-Fc to primary murine CD4⁺ and CD8⁺ T-cells were assessed using flow cytometry. Mouse splenocytes were treated with red blood cell lysis buffer and cultured with about 2 μg/mL Concanavalin A (C5275; MilliporeSigma) for 2 days. Murine splenocytes were harvested, had their Fc receptors blocked with Mouse TruStain FcX (101319; BioLegend) and were incubated with about 2.5 μg of vdPVR-Fc or mutant vdPVR-Fc for about 1 h at about 4° C. Cells were then washed and PE anti-human IgG Fc (409304; Biolegend) was added to detect vdPVR-Fc and mutant PVR-Fc binding. Additionally, cells were simultaneously stained with a cocktail of Alexa Flour 700 anti-CD3 (100216; BioLegend), APC anti-CD8 (100711; BioLegend), and PE/Cy7 anti-CD4 (100422;BioLegend) for about 30 minutes at about 4° C. Cells were subsequently washed and analysed by flow cytometry (BD LSR II, Becton Dickinson; Center for Scanning Microscopy and Flow Cytometry; Sunnybrook Research Institute) with DAPI (D1306; Thermo Fisher Scientific) used to exclude dead cells. To confirm the specificity of vdPVR-Fc to TIGIT, competition cell binding experiments were performed with mouse anti-TIGIT antibody (clone 1B4; Absolute Antibody). Mouse splenocytes were incubated with vdPVR-Fc as described above. […]

| Binder | Kd [1] [nM] | koff [1] [s⁻¹] | kon [1] [M⁻¹ s⁻¹] | Kd [2] [nM] | Kd [3] [nM] | kon [3] [M⁻¹ s⁻¹] | binding result [4] |
| --- | --- | --- | --- | --- | --- | --- | --- |
| vdPVR-Fc (murine IgV-domain PVR-Fc fusion construct) (Fc fusion, Secreted from Expi293F cells, purified on protein A, runs as a dimer (about 94 kDa); also called IgV PVR-Fc; truncated IgV-Fc construct) DIRVLVPYNSTGVLGGSTTLHCSLTSNENVTITQITWMKKDSGGSHALVAVFHPKKGPNIKEPERVKFLAAQQDLRNASLAISNLSVEDEGIYECQIATFPRGSRSTNAWLKVQARPKNIEGRM[left out - human IgG1 Fc and a few adjoining residues] | 0.69 | 0.00184 | 2.67e+06 | 1.72 | 2.25 | 2.92e+07 | – |
| mutant vdPVR-Fc (Q63R and F128R in the PVR IgV ECD) (Fc fusion, Made like vdPVR-Fc except for the two point mutations; Negative control; also called mutant PVR-Fc) DIRVLVPYNSTGVLGGSTTLHCSLTSNENVTITRITWMKKDSGGSHALVAVFHPKKGPNIKEPERVKFLAAQQDLRNASLAISNLSVEDEGIYECQIATRPRGSRSTNAWLKVQARPKNIEGRM[left out - human IgG1 Fc and a few adjoining residues] | – | – | – | – | – | – | no binding |
